Whole data set: some 33,000 sequences, median “E-score (-0.5 to 0.5)” near -0.036, cut for the highest 2% near 0.37. The list shows a part of the results.
Biological target: T1, Yer064c (UniProt P40041)
T1 sequence: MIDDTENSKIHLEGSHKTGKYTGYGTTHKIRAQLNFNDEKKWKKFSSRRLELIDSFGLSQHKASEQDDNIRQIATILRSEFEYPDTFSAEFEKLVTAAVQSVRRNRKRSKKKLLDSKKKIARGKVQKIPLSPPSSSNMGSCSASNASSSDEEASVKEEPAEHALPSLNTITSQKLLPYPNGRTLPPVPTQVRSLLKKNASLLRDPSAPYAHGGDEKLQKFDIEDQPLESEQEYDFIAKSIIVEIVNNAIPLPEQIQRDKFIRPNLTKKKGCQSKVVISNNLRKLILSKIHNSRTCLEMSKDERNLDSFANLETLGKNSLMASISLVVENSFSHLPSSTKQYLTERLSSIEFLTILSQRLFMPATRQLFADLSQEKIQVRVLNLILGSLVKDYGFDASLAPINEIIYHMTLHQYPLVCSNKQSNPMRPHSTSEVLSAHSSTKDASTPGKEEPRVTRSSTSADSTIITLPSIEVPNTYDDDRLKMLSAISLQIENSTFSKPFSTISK
Assay: PBM E-score (8-mer binding enrichment) (E-score (-0.5 to 0.5)); higher = stronger / more preferred TF binding; most listed sequences are background and not binding sites
Conditions: protein concentration: 200 nM; construct: GST-full length
How it was run: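 Universal all-10-mer Agilent arrays, fresh or stripped once, were converted to double-stranded form by primer extension. GST-tagged yeast transcription factors from PURExpress in vitro transcription/translation, full-length or DNA-binding domain only, were applied at about 100-200 nM and detected with fluorescent anti-GST. After masliner normalisation, the Universal PBM Analysis Suite scored each ungapped eight-base word together with its reverse complement by E-score.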

Row | Sequence | PBM E-score
1 | AGAGCTAT | -0.225
2 | ACCGGAAG | -0.0509
3 | GTCTACAC | 0.0747
4 | CCTACTGC | -0.163
5 | CATCCCTA | 0.0427
6 | AACTAACA | 0.0696
7 | GTCAGTAA | 0.0875
8 | AATATCCG | -0.0742
9 | AACCACTC | 0.104
10 | AGTAACCA | 0.0807
11 | AAGCATCT | -0.268
12 | CGAGCGAC | -0.00147
13 | CCCTATCA | -0.155
14 | ACCTATGA | 0.165
15 | ACAATTGT | -0.0352
16 | CCCCTCAA | -0.184
17 | GGGCTTAC | -0.23
18 | AAGGTGTG | -0.121
19 | CTACGTCC | -0.239
20 | GTACCCCA | -0.0275
21 | ACAGGGCT | -0.265
22 | ACATTACC | 0.0246
23 | ATTTAAGA | 0.16
24 | ACGTAGCC | -0.186
25 | ATTAGCCA | 0.241

Row | Sequence | PBM E-score
26 | GTCTATCA | 0.0174
27 | CCGGGGAC | -0.126
28 | ACATGATA | 0.0112
29 | ACAGGAAA | -0.0551
30 | ACCTCGAA | 0.00861
31 | GCTGTTCA | 0.0639
32 | GAATACAC | 0.0359
33 | ACAGAATA | 0.0768
34 | TAGGACAA | -0.00562
35 | GCAAGTGA | 0.167
36 | AGGTTACA | 0.109
37 | CCCGTGGC | -0.101
38 | AATCCAAA | 0.113
39 | GCCACCTA | -0.116
40 | GTGCAGCA | -0.233
41 | CATGGGCA | -0.0215
42 | AATTCACG | -0.195
43 | CCAAGTGC | -0.302
44 | GACCCGGA | -0.00849
45 | CATACCCG | 0.0361
46 | GACATGGC | -0.0552
47 | ACACGCCC | -0.151
48 | GGAATCAA | 0.257
49 | GAGTACAA | 0.28
50 | ATAGTGAA | 0.0239

Row | Sequence | PBM E-score
51 | CGGACAAC | -0.0568
52 | CCCGAGCA | -0.215
53 | CACATGAC | 0.36
54 | AATAATGT | -0.0639
55 | CGAACGGA | 0.109
56 | ACAAACAT | -0.077
57 | AAAAGCTG | -0.028
58 | CCAGAGTC | 0.38
59 | GTAACGCA | -0.107
60 | CCAGCTAA | 0.00069
61 | ATGTCTTA | 0.0357
62 | ATTCAGTA | 0.13
63 | ACACGGGT | 0.0218
64 | ACCTACAC | -0.0901
65 | GTGATGAA | -0.129
66 | GACCGGCA | -0.0532
67 | TCCCAAGA | 0.0948
68 | GTAATGCA | -0.0968
69 | AGCGGTGC | -0.322
70 | GATATTAC | 0.138
71 | CGCGTTTC | -0.23
72 | AATCGTAT | 0.118
73 | CTAGGCTA | -0.0986
74 | AGCGGCAC | -0.239
75 | CATGCAGA | -0.0406

Row | Sequence | PBM E-score
76 | AGGTGTAG | -0.00358
77 | CGAGTAAA | 0.0104
78 | AAATATTC | -0.0241
79 | GGGTAACC | 0.0816
80 | GTCTGGGA | -0.222
81 | AAATAGAA | 0.0475
82 | CCCTTGGC | -0.182
83 | GGCACTAC | -0.152
84 | CGATTTAG | 0.161
85 | GTTCGTTA | 0.0641
86 | GCGCTAAA | -0.089
87 | AAGTCGGT | 0.0145
88 | CGGTTGAG | 0.107
89 | GGTACTGA | 0.0932
90 | ACTATTCC | 0.144
91 | ATGTGCGG | -0.123
92 | GAGTCGCC | 0.439
93 | ACGCCAAC | -0.129
94 | ACCTTGCC | 0.0427
95 | TGCTGGAA | -0.0443
96 | GGCCGAGA | -0.0289
97 | GTTACTGA | 0.0747
98 | GGCGTTGA | -0.177
99 | CAACACAG | 0.0802
100 | AACGCGTA | -0.111

Row | Sequence | PBM E-score
101 | AGAACACG | -0.0797
102 | ATAAACAA | 0.18
103 | AGTTTGTG | -0.0474
104 | CTCATGAA | 0.202
105 | AGGGATAT | -0.312
106 | CAGGGGCA | -0.103
107 | CTCCTTCA | 0.0177
108 | CCCATGGC | -0.0518
109 | GTCAAACA | 0.0911
110 | AATTTGCA | -0.245
111 | GCGTAACA | -0.103
112 | CATGTGCC | -0.0206
113 | CCGTATCC | -0.286
114 | ATCCACGG | -0.0371
115 | GTCCCGTA | -0.137
116 | CACACTAC | -0.0561
117 | AATTTAAC | 0.0938
118 | GTAGCATA | -0.262
119 | TTAAAAAA | 0.242
120 | GTAAGGAA | -0.0495
121 | CGAGCGAG | 0.0814
122 | CCGCTGGA | -0.207
123 | CGTAATAC | 0.0719
124 | ACCCCGTG | -0.204
125 | ATTATTCG | 0.081

Row | Sequence | PBM E-score
126 | CTAATAAG | 0.04
127 | ACCTGCAT | -0.202
128 | AGGCAGTC | 0.213
129 | GGTCCGCA | -0.264
130 | ATCCTCAT | -0.0541
131 | CCAACGTC | -0.197
132 | CCTTCTCC | -0.264
133 | CGACACGA | 0.0537
134 | AACGAAGC | -0.00137
135 | CTCAATTA | 0.235
136 | ACATATTC | 0.0348
137 | CAGACGGA | 0.0828
138 | ACTAGCAT | 0.0427
139 | AAACCTGT | 0.127
140 | AGGCGTAA | -0.0376
141 | AAGGCATG | -0.00376
142 | CGCATACC | -0.0869
143 | GAGTCGCA | 0.438
144 | CAGGTGAG | 0.102
145 | GGCAATGA | 0.173
146 | AAAGTTTC | -0.0603
147 | CTGACTTC | 0.392
148 | GGCCCCAC | -0.343
149 | CAAGTACA | -0.0184
150 | CACGCTGG | -0.0438

Row | Sequence | PBM E-score
151 | CATCAGGG | -0.11
152 | AGCAACCG | -0.0529
153 | AATCGGCC | -0.161
154 | CCGATCCA | -0.26
155 | ACCCTCCA | -0.0773
156 | AACGGGCT | -0.143
157 | GGTGATTA | 0.447
158 | ATCAGACA | 0.193
159 | AACTTGCG | -0.056
160 | CTAGTTAC | 0.0522
161 | GTACATTA | -0.114
162 | AAGGATTA | 0.0731
163 | AGGTTGAC | 0.167
164 | AGAGATTA | 0.117
165 | ACCCGACG | -0.216
166 | ACTAACCA | 0.268
167 | GCGCCTAA | 0.0241
168 | CATAGGAG | 0.129
169 | CTCACAGC | 0.118
170 | ACCAATTG | -0.0949
171 | ATCTGCGG | -0.0265
172 | CACCGAAA | 0.0512

Source: the supplement of paper PMC3334620
